Measured values: paper PMC6664820, “Novel natural and synthetic inhibitors of solute carriers SGLT1 and SGLT2” (Pharmacology Research & Perspectives, 2019)
The campaign covered roughly 1,900 compounds. About 40 (2%) showed an effect of 50% or more. Some of the results follow.

The compounds below were run against human SGLT1 (hSGLT1) (human, UniProt P13866) (assay: primary screen, percent of control activity; higher = less effect of the substance). Settings: 50 µM.
Design: single well
In short: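 Single-point screen at 50 µmol/L in CHO-hSGLT1 cells, with 160 µmol/L 1-NBD-glucose in glucose-free DMEM for 90 min at 37°C. Fluorescence from isopropanol extracts was calibrated, and CHO wild-type uptake was subtracted. Data are percent of uptake without compound.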

Chain of human SGLT1 (hSGLT1) (P13866 whole entry, looked up): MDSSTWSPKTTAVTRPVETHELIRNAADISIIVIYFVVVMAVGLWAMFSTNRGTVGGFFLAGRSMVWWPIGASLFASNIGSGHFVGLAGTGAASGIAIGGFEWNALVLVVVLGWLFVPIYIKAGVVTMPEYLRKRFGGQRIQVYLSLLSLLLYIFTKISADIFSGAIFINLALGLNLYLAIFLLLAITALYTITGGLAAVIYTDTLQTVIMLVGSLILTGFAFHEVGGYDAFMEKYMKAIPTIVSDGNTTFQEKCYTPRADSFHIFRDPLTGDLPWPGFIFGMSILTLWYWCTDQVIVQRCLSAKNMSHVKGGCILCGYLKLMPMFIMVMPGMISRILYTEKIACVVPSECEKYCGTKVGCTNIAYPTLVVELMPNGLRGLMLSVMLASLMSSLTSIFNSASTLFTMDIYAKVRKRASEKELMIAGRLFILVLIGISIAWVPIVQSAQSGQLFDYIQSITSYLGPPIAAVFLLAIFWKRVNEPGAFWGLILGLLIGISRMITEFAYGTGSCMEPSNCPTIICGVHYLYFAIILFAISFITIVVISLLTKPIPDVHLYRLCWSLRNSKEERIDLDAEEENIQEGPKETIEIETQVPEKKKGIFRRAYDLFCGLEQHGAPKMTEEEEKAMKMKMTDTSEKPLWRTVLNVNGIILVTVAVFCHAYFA

| SMILES | NORMALIZED SGLT1 ACTIVITY (%) |
| --- | --- |
| CCn1cc(C(=O)O)c(=O)c2cc(F)c(N3CCN(C)CC3)cc21.CS(=O)(=O)O | 163 |
| CC(=O)Oc1cc2c(c(C)c1OC(C)=O)CC=C1[C@@]2(C)CC[C@@]2(C)C3C[C@](C)(C(=O)O)CC[C@]3(C)CC[C@]12C (stereo partly shown) | 149 |
| C=CCCCCCCCCCCC/C=C/C(O)COC(C)=O (stereo not shown) | 118 |
| NCCCS(=O)(=O)O | 120 |
| O=C(O)/C=C/C(=O)O.O=C1CCCN1CC#CCN1CCCC1 | 145 |
| C/C=C(/C)C(=O)O[C@H]1CC[C@@]2(C)[C@@H]3CC[C@H]4[C@]5(O)C[C@H](O)[C@@]6(O)[C@@H](CN7C[C@@H](C)CC[C@H]7[C@@]6(C)O)[C@]5(O)C[C@@]42O[C@]13O | 86 |
| Cc1cc(N)c2ccccc2[n+]1CCCCCCCCCC[n+]1c(C)cc(N)c2ccccc21.[Cl-].[Cl-] | 105 |
| CS(=O)(=O)Nc1ccc([N+](=O)[O-])cc1Oc1ccccc1 | 265 |
| COc1ccc2c(=O)ccoc2c1 | 223 |
| CN(C)CCCN1c2ccccc2Sc2ccc(Cl)cc21 | 60 |
| CSCCC(NC=O)C(=O)NC(C)C(=O)O (stereo not shown) | 110 |
| O=C1CN(/N=C/c2ccc(-c3ccc([N+](=O)[O-])cc3)o2)C(=O)[N-]1.[Na+] | 103 |
| O=C1O[C@H]([C@@H](O)CO)C(O)=C1O | 103 |
| COc1cc(OC)c2ccc(=O)oc2c1 | 193 |
| CCn1cc(C(=O)O)c(=O)c2cnc(N3CCCC3)nc21 | 193 |
| NS(=O)(=O)c1cc2c(cc1C(F)(F)F)NCNS2(=O)=O | 94 |
| CC(C)(C)NCC(O)c1cc(O)cc(O)c1.O=S(=O)(O)O (stereo not shown) | 113 |
| CNCCC=C1c2ccccc2CCc2ccccc21.Cl | 103 |
| COc1c2ccoc2cc2oc(C)cc(=O)c12 | 165 |
| Cl.NCCCCCCNS(=O)(=O)c1cccc2c(Cl)cccc12 | 186 |
| COC(=O)C[C@H]1C(C)(C)[C@@H](O)[C@@H]2CC3=C4CC(O)O[C@@H](c5ccoc5)[C@]4(C)CCC3[C@@]1(C)C2=O (stereo partly shown) | 127 |
| COC(=O)[C@@H]1OC(=O)C2OC23[C@@]1(C)CCC1[C@@]2(C)CCC(=O)C(C)(C)C2C[C@@H](OC(C)=O)[C@]13C (stereo partly shown) | 112 |
| CC1[C@H](C)OC(=O)CC(O)CC(O)CC(O)CCC(O)C(O)C[C@]2(O)CC(O)C(C(=O)O)C(CC(OC3O[C@H](C)[C@@H](O)[C@H](N)[C@@H]3O)/C=C/C=C/C=C/C=C/CC/C=C/C=C/[C@H](C)[C@H]1O)O2 (stereo partly shown) | 82 |
| CCCCCCC(C)OC(=O)COc1cc(Cl)c(Cl)cc1Cl (stereo not shown) | 93 |
| NC(=O)c1ccc[n+]([C@@H]2O[C@H](COP(=O)([O-])OP(=O)(O)OC[C@H]3O[C@@H](n4cnc5c(N)ncnc54)[C@H](OP(=O)([O-])O)[C@@H]3O)[C@@H](O)[C@H]2O)c1.[Na+] | 90 |
| CCC1(C)CC(=O)NC1=O (stereo not shown) | 94 |
| O=C1C(O)=C(O)C(=O)C(O)=C1O | 98 |
| COC(=O)Nc1nc2ccc(S(=O)c3ccccc3)cc2[nH]1 (stereo not shown) | 125 |

| SMILES | NORMALIZED SGLT1 ACTIVITY (%) |
| --- | --- |
| COc1cc(C)c2c(=O)cc(-c3ccccc3)oc2c1 | 195 |
| COc1ccccc1/C=C\C(=O)O | 95 |
| C[C@]12C=CC(=O)C=C1CCC1C2CC[C@]2(C)C(=O)CCC12 (stereo partly shown) | 102 |
| CC(C)CCC[C@@H](C)[C@H]1CC[C@H]2[C@@H]3C[C@@H](O)[C@@]4(O)C[C@@H](O)CC[C@]4(C)[C@H]3CC[C@]12C | 109 |
| CC(C)(C)NC[C@H](O)COc1nsnc1N1CCOCC1.O=C(O)/C=C\C(=O)O | 106 |
| C[C@H]1CCCC(=O)CCC/C=C/c2cc(O)cc(O)c2C(=O)O1 | 53 |
| CN(C)C(=O)Oc1cccc([N+](C)(C)C)c1.[Br-] | 109 |
| CC1/C(=N/O)C[C@@H]2C[C@H]1C2(C)C (stereo partly shown) | 136 |
| CCCCC1C(=O)N(c2ccccc2)N(c2ccccc2)C1=O | 112 |
| Br.CC(Cc1ccc(O)cc1)NCC(O)c1cc(O)cc(O)c1 (stereo not shown) | 143 |
| CC(C)c1c(O)ccc2c1CCC1C(C)(C(=O)O)CCCC21C (stereo not shown) | 234 |
| CCCCCNC(=N)N/N=C/c1c[nH]c2ccc(OC)cc12.O=C(O)/C=C\C(=O)O | 141 |
| C[C@]12C=CC(=O)C=C1CCC1C2[C@@H](O)C[C@@]2(C)C1CC[C@]2(O)C(=O)CO (stereo partly shown) | 117 |
| C[C@H](CS)C(=O)N1CCC[C@H]1C(=O)O | 125 |
| S=C=NCc1ccccc1 | 121 |
| CC(C)NCC(O)COc1cccc2[nH]ccc12 (stereo not shown) | 99 |
| COC(=O)C1=C(C)NC(C)=C(C(=O)OC)C1c1ccccc1[N+](=O)[O-] | 240 |
| O=c1oc2cc(O)ccc2s1 | 147 |
| C[C@@H](CO)NC(=O)C1C=C2c3cccc4[nH]cc(c34)C[C@H]2N(C)C1.O=C(O)/C=C\C(=O)O (stereo partly shown) | 105 |
| CCCC(C)(COC(N)=O)COC(=O)NC(C)C (stereo not shown) | 117 |
| CCC(C)[C@H]1O[C@]2(C=C[C@@H]1C)C[C@@H]1C[C@@H](C/C=C(\C)[C@@H](OC3C[C@H](OC)C(O[C@H]4C[C@H](OC)[C@@H](O)[C@H](C)O4)[C@H](C)O3)[C@@H](C)/C=C/C=C3\CO[C@@H]4[C@H](O)C(C)=C[C@@H](C(=O)O1)[C@]34O)O2 (stereo partly shown) | 124 |
| CC(=O)O[C@H]1C[C@@H](OC(C)=O)C(C)(C)C2C[C@@H](OC(C)=O)[C@]3(C)C([C@H](OC(C)=O)C[C@@]4(C)[C@H](c5ccoc5)OC(=O)[C@H]5O[C@]543)[C@]21C (stereo partly shown) | 101 |
| O=c1oc2ccccc2c(O)c1Cc1c(O)c2ccccc2oc1=O | 288 |
| CC[n+]1c(-c2ccccc2)c2cc(N)ccc2c2ccc(N)cc21.[Br-] | 82 |
| COc1ccc(CN(CCN(C)C)c2ncccn2)cc1.Cl | 75 |
| C[C@H]1[C@H]2CC[C@H]3[C@@H]4CC=C5C[C@@H](N(C)C)CC[C@]5(C)[C@H]4CC[C@]23CN1C | 107 |
| Cl.Cl.N=C(NCCCCCCNC(=N)NC(=N)Nc1ccc(Cl)cc1)NC(=N)Nc1ccc(Cl)cc1 | 25 |
